PubChem BioAssay AID588591 (National Center for Advancing Translational Sciences (NCATS), 2011)
Screen size: about 390,000 compounds; about 4,700 (1.2%) were called active. The inconclusive results got no clear call from the source; some entries with a clear call stand among them for comparison. The call rests on the fitted dose curve; in most records, active means well fitted inhibition curve with a large enough effect; inconclusive means small, poorly fitted or top-dose-only effect, or another doubt; inactive means no such curve, though single readings can be large or run the other way. Where the call is inconclusive, the potency comes from a doubtful curve fit.

These molecules were tested against DNA polymerase eta (Homo sapiens) (UniProt Q9Y253) (assay: qHTS for Inhibitors of Polymerase Eta). Details: recombinant Pol eta, fluorescent DNA replication assay; series mostly up to 114 µM.
Chain of UniProt Q9Y253 (Q9Y253 whole entry, looked up): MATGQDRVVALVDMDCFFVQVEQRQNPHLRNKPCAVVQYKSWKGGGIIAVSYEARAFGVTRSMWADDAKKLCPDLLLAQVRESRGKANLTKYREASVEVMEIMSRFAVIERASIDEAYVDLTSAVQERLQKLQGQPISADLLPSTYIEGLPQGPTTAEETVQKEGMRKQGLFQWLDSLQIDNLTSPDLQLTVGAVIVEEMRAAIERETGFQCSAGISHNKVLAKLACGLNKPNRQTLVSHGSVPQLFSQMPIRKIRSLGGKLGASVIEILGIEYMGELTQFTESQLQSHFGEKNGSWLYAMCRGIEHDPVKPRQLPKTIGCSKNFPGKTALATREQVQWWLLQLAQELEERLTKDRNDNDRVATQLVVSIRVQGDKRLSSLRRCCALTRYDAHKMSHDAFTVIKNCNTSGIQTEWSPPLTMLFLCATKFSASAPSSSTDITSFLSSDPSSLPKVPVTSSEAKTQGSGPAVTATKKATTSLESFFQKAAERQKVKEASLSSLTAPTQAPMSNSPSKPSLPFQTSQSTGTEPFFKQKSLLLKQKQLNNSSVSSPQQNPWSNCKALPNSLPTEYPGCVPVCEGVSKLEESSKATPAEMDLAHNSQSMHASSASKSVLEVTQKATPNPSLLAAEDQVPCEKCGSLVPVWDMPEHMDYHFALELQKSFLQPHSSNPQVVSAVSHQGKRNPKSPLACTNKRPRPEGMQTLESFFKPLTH
How it was run: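 Pol eta (10 nM) was preincubated with compounds for 15 min at room temperature, after which fluorescent replication substrate (50 nM final) was added to start the reaction. Fluorescence was read kinetically at 0 and 10 min.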
Potency means the concentration at half of the fitted maximal effect; tags describe the fitted curve by direction and shape.

SMILES	Potency
O=C1c2sccc2-c2cccc3cccc1c23	inactive
COc1cc2cc(C(=O)N/N=C/c3ccccc3Cl)[nH]c2cc1OC	inconclusive: 50.1 µM [inhibitor, partial curve, poor fit]
CC1=CC(=C(C#N)c2nc3ccccc3s2)C=C(C)N1c1ccc(F)cc1	inconclusive: 2.24 µM [inhibitor, partial curve, poor fit]
O=C(Nc1ccc(Br)cn1)c1cccc(-c2cc3ccccc3oc2=O)c1	inconclusive: 15.8 µM [inhibitor, partial curve, poor fit]
CCOC(=O)C1=C(C)OC(N)=C(C#N)C1c1cc(C)sc1C (stereo not given)	inconclusive: 79.4 µM [inhibitor, partial curve, poor fit]
COc1cc(/C=C2\SC(=O)N(c3cccc(Cl)c3)C2=O)cc([N+](=O)[O-])c1O	inconclusive: 3.16 µM [inhibitor, full curve, poor fit]
O=C(CSc1ccc(-c2nc3ccccc3[nH]2)cn1)N1CCN(C(=O)c2ccco2)CC1	inconclusive: 50.1 µM [inhibitor, partial curve]
Cc1cc(C(=O)CSc2nnc(N)s2)c(C)n1-c1c(C)n(C)n(-c2ccccc2)c1=O	inconclusive: 39.8 µM [inhibitor, single point]
CCOc1ccc(N2C(=O)CC(Sc3nnnn3-c3ccccc3)C2=O)cc1 (stereo not given)	inconclusive: 100 µM [inhibitor, partial curve, poor fit]
O=C(CC(NS(=O)(=O)c1ccc(Cl)cc1)c1ccco1)NCc1ccco1 (stereo not given)	inconclusive: 14.1 µM [inhibitor, full curve, poor fit]
CCN(c1ccc(Cl)cc1)S(=O)(=O)c1nnc(NC(=O)c2ccco2)s1	active: 39.8 µM
Cc1oc2c(c1C(=O)Nc1cccc(C(=O)O)c1)CCCC2	active: 50.1 µM
O=C(Nc1nnc(C2CC2)s1)C1CC(=O)N(c2ccc3c(c2)OCCO3)C1 (stereo not given)	active: 20 µM
Cc1ccc2c(CC(=O)N3CCc4ccccc43)coc2c1	inconclusive: 25.1 µM [inhibitor, single point]
Cc1ccc2cc(C#N)c(SCC(=O)NCc3ccco3)nc2c1	inconclusive: 14.1 µM [inhibitor, full curve, poor fit]
Cc1ccn2c(=S)[nH]nc2c1	inactive
O=C(CN(C(=O)c1csnn1)c1ccccc1)NCc1ccc2c(c1)OCO2	inconclusive: 100 µM [inhibitor, single point]
CCC(=O)N1CCc2cc(Br)cc(S(=O)(=O)CCC(=O)N(C)c3cccc(C)c3)c21	active: 35.5 µM
O=C(COC(=O)c1ccc(OC(F)(F)F)cc1)Nc1ncccn1	active: 17.8 µM
FC(F)(F)c1ccc(Cl)c(NC(=S)N/N=C/c2ccccc2C(F)(F)F)c1	inconclusive: 89.1 µM [inhibitor, single point]
O=C(Nc1c(Cl)cccc1Cl)c1cccc2c1C(=O)N(C1CCCCC1)C2	inactive
CCOC(=O)CC(NS(=O)(=O)c1ccc2[nH]cc(C(=O)O)c(=O)c2c1)c1ccc(OCC)c(OC)c1 (stereo not given)	active: 3.98 µM

SMILES	Potency
CCN(CC)CCCNC(=O)CSc1nc2nc(C)c(Cc3ccccc3C)c(C)n2n1	inactive
O=C(COC(=O)c1ccc([N+](=O)[O-])o1)Nc1cccc(S(=O)(=O)N2CCCCC2)c1	inactive
Cc1ccn2c(=O)nc(SCC(=O)NCc3ccc(F)cc3)nc2c1	active: 28.2 µM
CSCCC1C(C#N)=C(N)Oc2n[nH]c(-c3cccs3)c21 (stereo not given)	inactive
O=CNc1c(Cl)cc2c(c1Cl)Cc1cc([N+](=O)[O-])ccc1-2	inconclusive: 1.41 µM [inhibitor, full curve, poor fit]
CC(O)(c1cccs1)C(C(=O)O)c1ccccc1 (stereo not given)	inconclusive: 39.8 µM [inhibitor, partial curve, poor fit]
COc1cccc(-c2nc3ccc(O)cc3c(=O)o2)c1	inconclusive: 35.5 µM [inhibitor, partial curve, poor fit]
O=S(=O)(NCc1ccccc1Cl)c1ccc(-c2cnc(C3CC3)o2)cc1	inconclusive: 100 µM [inhibitor, partial curve, poor fit]
CCOc1ccc(S(=O)(=O)N2CCN(C(=S)NCc3ccco3)CC2)cc1	inconclusive: 50.1 µM [inhibitor, partial curve, poor fit]
O=C(CSc1nc2ccsc2c(=O)n1NC(=O)c1ccccc1)NCc1ccco1	active: 44.7 µM
CCOC(=O)c1cc(S(=O)(=O)NC2CCN(C(=O)OCC)CC2)cn1C	inconclusive: 20 µM [inhibitor, partial curve]
Cc1cc(C)cc(NC(=O)C(=O)NCC(c2ccc3c(c2)OCO3)N2CCOCC2)c1 (stereo not given)	inactive
CCc1sc(C(C2C(=O)CC(C)(C)CC2=O)C2C(=O)CC(C)(C)CC2=O)cc1[N+](=O)[O-]	inconclusive: 89.1 µM [inhibitor, partial curve, poor fit]
COc1ccc2nc(N/C(N)=N/C(=S)Nc3cccc(C)c3)nc(C)c2c1	inactive
CCOc1ccc(-n2c(O)c(/C=N/c3ccnn3Cc3ccncc3)c3ccccc3c2=O)cc1	inconclusive: 50.1 µM [inhibitor, partial curve, poor fit]
N/C(Cc1ccc([N+](=O)[O-])cc1)=N\OC(=O)Cc1ccc(Cl)cc1	inconclusive: 89.1 µM [inhibitor, partial curve, poor fit]
COc1cc(NC(=O)c2noc3c2CCC3)c(OC)cc1Cl	active: 17.8 µM
Cc1ccc(NC(=O)CN(CCc2ccccc2)S(=O)(=O)c2ccccc2)c(C)c1	inactive
CN(C(=O)c1cccc(C(F)(F)F)c1)C1CCCc2ccccc21 (stereo not given)	inconclusive: 44.7 µM [inhibitor, partial curve, poor fit]
CCc1ccc(S(=O)(=O)Nc2cccc(-c3ccc4nnc(C)n4n3)c2)s1	inconclusive: 39.8 µM [inhibitor, partial curve, poor fit]
COCOCCn1cc(CN2CCS(=O)(=O)N(Cc3ccc(-c4ccc(C)cc4)cc3)C(C(C)C)C2=O)nn1 (stereo not given)	inconclusive: 79.4 µM [inhibitor, partial curve, poor fit]
COc1ccccc1OCC(=O)Nc1nnc(-c2ccco2)s1	inconclusive: 17.8 µM [inhibitor, partial curve, poor fit]

SMILES	Potency
CCNc1nc(Oc2c(Cl)cccc2Cl)cc(C(F)(F)F)n1	inconclusive: 8.91 µM [inhibitor, partial curve, poor fit]
CCOC(=O)c1cc(-c2ccc(F)cc2)n(CC(=O)Nc2nccs2)c1C	inconclusive: 79.4 µM [inhibitor, partial curve, poor fit]
COCCn1c(=O)[nH]c(=O)c2c1nc(-c1ccc(-c3ccc(Cl)cc3[N+](=O)[O-])o1)n2Cc1ccccc1	inconclusive: 28.2 µM [inhibitor, partial curve, poor fit]
Cc1ccccc1Nc1c(-c2ccc(Cl)s2)nc2c(C)cccn12	inactive
Cc1ccc(N2CC(C(=O)Nc3nnc(SCC(=O)Nc4nc(C)cs4)s3)CC2=O)cc1 (stereo not given)	inconclusive: 14.1 µM [inhibitor, partial curve]
CC(/C=C/c1ccco1)=N/NC(=O)c1ccc(C)nc1	inactive
COc1cc2nc(SCc3c(C)noc3C)n(CCC3=CCCCC3)c(=O)c2cc1OC	inconclusive: 89.1 µM [inhibitor, partial curve, poor fit]
O=C(NCc1ccco1)C1CCCN(S(=O)(=O)c2cccc3nonc23)C1 (stereo not given)	inconclusive: 22.4 µM [inhibitor, partial curve]
CCCCN1C(C(=O)Nc2ncccn2)=C(O)c2ccccc2S1(=O)=O	inactive
CC1(C)Cc2c(ccc3ccccc23)C(NNC(=O)c2cccnc2)=N1	inconclusive: 39.8 µM [inhibitor, single point]
C=C(CN(C)C)C(=O)c1cc(C)ccc1C	inconclusive: 31.6 µM [inhibitor, partial curve, poor fit]
O=C(O)C/C(=C\c1ccc(N2CCOCC2)c([N+](=O)[O-])c1)c1nc2ccccc2s1	active: 31.6 µM
CCOc1ccc(CCNC(=O)COC(=O)CNS(=O)(=O)c2ccc(C)cc2)cc1OCC	inconclusive: 39.8 µM [inhibitor, partial curve, poor fit]
Cc1c(CCC(=O)O)c(=O)oc2c(C)c3occ(-c4ccc(Br)cc4)c3cc12	active: 17.8 µM
O=C(Nc1nc2ccc(Cl)cc2s1)c1ccc(Br)o1	inconclusive: 31.6 µM [inhibitor, single point]
O=C(COC(=O)/C=C/c1ccco1)Nc1cc(S(=O)(=O)N2CCOCC2)ccc1Cl	inconclusive: 17.8 µM [inhibitor, full curve]
NC(=O)c1cccc2c1C(=O)N(C1CCCCC1)C2	active: 50.1 µM
COc1cc2c(cc1OC)C(c1cccs1)N(C(=O)c1ccc(S(=O)(=O)N(C)C)cc1)CC2 (stereo not given)	inconclusive: 79.4 µM [inhibitor, partial curve, poor fit]
Nc1cc(=O)[nH]c(=S)n1-c1ccccc1	inconclusive: 20 µM [inhibitor, partial curve]
Cc1ccccc1OCCCn1c(-c2ccc(Cl)cc2)nc2ccccc2c1=O	inactive
COc1ccc(-c2nc(-n3c(C)c(C(C)=O)c(C(C)=O)c3C)sc2C)cc1	inconclusive: 39.8 µM [inhibitor, partial curve, poor fit]
